Data taken from PubChem BioAssay AID1508623 (National Center for Advancing Translational Sciences (NCATS), 2021).
Out of some 48,000 compounds screened, about 450 (0.94%) were called active. About 19% were inconclusive and are not listed. The call rests on the fitted dose curve; in most records, active means well fitted inhibition curve with a large enough effect; inconclusive means small, poorly fitted or top-dose-only effect; inactive means no such curve, though single readings can be large or run the other way. The list shows a part of the results.

test: Primary qHTS for Identification of Small Molecule Inhibitors of Huntingtin Promoter Activity; details: HEK293 HTT promoter firefly luciferase reporter (activity 0% = vehicle and -100% = no light), 24 h; series mostly up to 57.5 µM; activity change, negative = inhibition: at the top concentration; further: nearly all actives have a fitted effect of over 50% in size
Outline: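 HEK293 Fluc reporter, 2,500 cells/well, 24 h pre-culture; cpds up to 57.5 uM final, 24 h 37 degrees C; Dual-Glo, 10 min RT; normalized vehicle = 0%, zero RLU = -100%.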

Activity change, negative = inhibition, inactive:
CCN(CC)C(=O)c1sc2c(c1C)c(=O)n(CCc1ccccc1)c(=O)n2Cc1cc(C)ccc1C 0%
CC(C)(C)C(=O)NCC(c1ccc2c(c1)OCO2)N1CCOCC1 (stereo unspecified) -5.21%
O=C(CSc1nnc(-c2cccs2)o1)Oc1ccccc1Cl -1.33%
COc1cccc(N2CCN(C(=O)c3cc4c(s3)-c3ccccc3OC4)CC2)c1 -22.6%
Cc1cccc(C)c1NC(=O)C(NS(=O)(=O)c1cccs1)c1ccccc1 (stereo unspecified) -11%
O=C(Cn1ccn(-c2ccc(F)cc2)c(=O)c1=O)Nc1ccc(F)cc1 -6.43%
O=C(Cn1ncc2c3ccccc3n(Cc3cccc(Cl)c3)c2c1=O)Nc1ccc(F)cc1F -10.3%
Cc1cccc(NC(=O)N2CCN3CCCCC3C2)c1C (stereo unspecified) -8.46%
COc1cc(NC(=O)CCS(=O)(=O)c2ccc3c(c2)n(C)c(=O)c(=O)n3C)cc(OC)c1 2.66%
COc1ccccc1N1CCN(c2csc3ccccc3c2=O)CC1 33.4%
Cc1cccc(C)c1Nc1c(-c2ccsc2)nc2cccc(C)n12 -37.1%
COc1cccc(NC(=O)Cn2c(-c3nonc3N)nc3ccccc32)c1 -18.9%
COC(=O)c1cc2oc3ccccc3c2n1Cc1ccccc1Cl -12.7%
CCOc1ccc(/C=C/c2nc(C#N)c(N3CCC(C)CC3)o2)cc1 -19.2%
COc1ccccc1CNC(=O)CCCCn1c(=O)c2ccccc2n(CC(=O)Nc2cccc(Cl)c2)c1=O -22.1%
CCc1ccc(Sc2cc(C(=O)NCCCN3CCC(C)CC3)c3ccccc3n2)cc1 -25%
COc1ccc(CNC(=O)C(=O)Nc2cccc(C)c2C)cc1 8.86%
O=c1c(-c2cc(-c3ccccc3)nc3c2COc2ccccc2-3)coc2ccc(Cl)cc12 -18.6%
CN1CCN(C2=Nc3ccccc3Sc3ccc(Cl)cc32)CC1 8.29%
CCc1ccc(NC(=O)C2CCCN(c3nnc(C)c4c(C)n(-c5ccccc5)nc34)C2)cc1 (stereo unspecified) 2.13%
O=C(Nc1cc(Cl)ccc1Cl)c1cc(S(=O)(=O)N2CCc3ccccc3C2)ccc1F -16.9%
COc1ccc(OC)c(C(=O)CN2C(=O)N(c3ccc(C)cc3)S(=O)(=O)c3ccccc32)c1 -21.5%
O=C(Cn1c(-c2cccs2)cc2ccccc21)N1CCN(c2ccc(F)cc2)CC1 -30.1%
COC(=O)c1c(-c2cccs2)csc1NC(=O)c1ccc(C)cc1 43.1%
CCOc1ccc(CNC(=O)C2CCN(C(=O)N3CC(CC)Oc4ccc(C)cc43)CC2)cc1OC (stereo unspecified) -23.9%
Cc1cc(NC(=O)c2cc(-c3ccc(Cl)c(Cl)c3)on2)n(-c2ccccc2)n1 -20.7% [at 11.5 µM]
CCOC(=O)CSc1nc2sc3c(c2c(=O)n1-c1ccc(OC)cc1)CC(C(C)C)OC3 (stereo unspecified) -2.66%
COc1ccccc1NC(=O)Cn1c(=O)n(CC2CCC(C(=O)NCCc3ccccc3)CC2)c(=O)c2ccccc21 (stereo unspecified) -9.26%
Cc1cc(Br)ccc1NC(=O)c1c(C)oc2ncnc(N3CCCCC3)c12 -6.79%
COc1cc2nccc(Oc3ccc(NC(=O)Nc4ccc(F)cc4F)c(F)c3)c2cc1OC -2.51%
CCN(CC)CCOC(=O)c1ccc(NC(=O)c2cc3cc(OC)ccc3oc2=O)cc1 -9.16%
COCCNC(=O)CN1C(=O)COc2ccc(S(=O)(=O)N3CCCC3)cc21 -14.6%
CCOC(=O)N1CCc2c(sc3c2C(=O)NC(c2ccc(C(=O)OC)cc2)N3)C1 (stereo unspecified) -19.8%
Cc1nnc(SCC(=O)Nc2ccc(N(C)C)cc2)[nH]c1=O 8.26%
CCc1ccc(NC(=O)Cn2c(=O)n(CCCC(=O)NCCc3ccc(OC)c(OC)c3)c(=O)c3ccccc32)cc1 2.53%
Cc1ccccc1NC(=O)CCn1nc(-c2ccccc2)c2ccccc2c1=O -29.8%
CCOc1ccc(Sc2cc(C(=O)NCc3ccccc3Cl)c3ccccc3n2)cc1 -25.2%
Cc1c(Cl)cccc1-n1nc(C)c2c(C)cc(=O)n(CC(=O)N3CCCc4ccccc43)c21 -26.9%
CCCNC(=O)C1CCN(c2nc3ccc(C)cc3[nH]2)CC1 29.5%
Cc1ccc(CNC(=O)CCCN2C(=O)CCn3nc(-c4cccn4C)cc32)cc1 -1.75%
COc1ccc(-c2nc3ccccc3n3c(-c4ccc(OC)cc4)c4c(=O)n(C)c(=O)n(C)c4c23)cc1 11.3%
CCOC(=O)c1ccc2c(c1)N(Cc1ccc(F)cc1Cl)C(=O)c1ccccc1S2 -27.7%
Cc1cnc(=O)[nH]c1SCC(=O)Nc1cc(C(F)(F)F)ccc1Cl -0.422%
CCN1CCN(c2cc(C)c3cc(NC(=O)/C=C/c4ccc(C)cc4)ccc3n2)CC1 -9.23%
COc1cccc(NC(=O)N(Cc2cn(C)c3ccccc23)C2CCCCCC2)c1 -9.57%
Cc1cccc(C(=O)Nc2ccc(N3CCC(N4CCCCC4)CC3)c(C(=O)O)c2)c1 -7.99%
Cc1cccc(CN2CCN(CC(=O)Nc3c(C)cccc3C)S2(=O)=O)c1 -5.52%
NC1=NC(c2cc(F)cc(F)c2)n2c(nc3ccccc32)N1 (stereo unspecified) -17.6%
Cc1ccc(Cl)cc1NC(=O)CC1Sc2ccccc2NC1=O (stereo unspecified) 45.1%
Cc1ccc(CNC(=O)CCc2c(C)nc3c4c(C)cc(C)nc4nn3c2C)cc1 4.39%
NC(=O)CSc1oc(-c2cccs2)nc1S(=O)(=O)c1ccc(Br)cc1 -13.3%
COc1ccc(S(=O)(=O)N2CCN(c3ccccc3)CC2)cc1-c1noc(C)n1 -17.1%
COC(=O)c1ccc(NC(=O)N2CCN(c3nnc(C)c4c(C)n(-c5ccccc5)nc34)CC2)cc1 -21.6%
O=C(c1cnc2c(c1)COc1ccccc1-2)c1ccccc1O 13.4%
Cn1nc(-c2ccccc2F)c2cc(C(=O)Nc3cc(F)ccc3F)sc21 -15.9%
CC(C)c1cnc2c(c1SCC(=O)c1ccccc1)c(=O)n(C)c(=O)n2C -14.6%
O=C(NCc1ccccc1)c1ccc2c(c1)N(Cc1ccccc1)C(=O)c1ccccc1S2(=O)=O -14.9%
CCOC(=O)Cn1c(=O)n(C2CCCCC2)c2nc(-c3ccc(OC)cc3)nc(C(N)=O)c21 -7.29%
Nc1ccc(C(=O)Nc2ccccc2N)cc1 80.8%
Cc1cc(C)cc(NC(c2nnc(-c3cccc(F)c3)o2)c2ccc(F)cc2Cl)c1 (stereo unspecified) -22.2%
Cn1c(=O)n(C)c2cc(CNCc3ccccc3)ccc21 -5.19%
Cc1ccc(CNS(=O)(=O)c2cc(Br)cc3c2N(C(=O)C2CC2)CC3)cc1 -9.27%
CCOc1ccc(C(=O)Nc2ccc(-c3nnc4n3CCCCC4)cc2)cc1OCC -9.06%
Cc1cccc2c(=O)cc(CSCC(=O)Nc3ccc(Cl)cc3)[nH]c12 -2.24%
Cc1ccc(Cn2c(=O)n(Cc3ccccc3)c(=O)c3c(C)c(C)sc32)cc1 -13.2%
Cc1ccc(CNC(=O)C(=O)NCC(c2ccco2)S(=O)(=O)c2ccc(C)cc2)cc1 (stereo unspecified) 4.03%
CC(C)(C)C(=O)Nc1nc2nc(-c3ccccc3)cc(=O)n2[nH]1 2.52%
Cc1ccc2oc(-c3cccc(NC(=O)c4ccc(N5CCC(C)CC5)c([N+](=O)[O-])c4)c3)nc2c1 -24.7%
COc1ccc(C2CC(=O)c3cc(-c4nc(-c5cccc([N+](=O)[O-])c5)cs4)c(=O)n(-c4ccc(F)cc4)c3C2)cc1 (stereo unspecified) -2.79%
CCc1cccc(C)c1NC(=O)c1cc(S(=O)(=O)N2CCC3(CC2)OCCO3)ccc1F -4.49%
C=CCn1c(=O)n([C@@H]2O[C@H](CO)[C@@H](O)[C@H]2O)c2nc(N)[nH]c(=O)c21 -1.39%
CC(=O)c1ccc(NC(=O)CSc2c(C(C)C)cnc3c2c(=O)n(C)c(=O)n3C)cc1 -7.79%
C[C@]12C=CC(=O)C=C1CC[C@@H]1[C@@H]2C(=O)C[C@@]2(C)[C@H]1CC[C@]2(O)C(=O)CO
Cc1c(-c2nnc(SCC(=O)Nc3ccc(Br)cc3)o2)nnn1-c1ccc(F)cc1 12.4%
O=C(Cn1c(=O)n(Cc2ccc(C(=O)NCc3ccc4c(c3)OCO4)cc2)c(=O)c2ccccc21)Nc1ccc(F)cc1F -13%
COC(=O)c1ccn(-c2nc(-c3ccc(Cl)cc3)cc(C(F)(F)F)n2)n1 -24.1%
CCOc1ccc(CNCCSc2nnnn2C)cc1OC -5.34%
Nc1ncnc2nc(-c3ccc(N4CCOCC4)nc3)cc(-c3cccc(Br)c3)c12 14.6%
COc1ccc(-c2nc(C)c(CCNS(=O)(=O)c3ccc(F)cc3)s2)cc1OC -19.7%
COC(=O)c1ccccc1NC(=O)c1cn2c3c(ccc(Cl)c3c1=O)OC(C)C2 (stereo unspecified) -8.81%
CCCCNC(=O)C1CCN(c2nc3ccc(C)cc3[nH]2)CC1 12.3%
CCOC(=O)c1cc(S(=O)(=O)N2CCN(c3cccc(C)c3C)CC2)[nH]n1 -13.8%
CNC(=O)c1c(NC(=O)c2nc(SCc3ccc(C)cc3)ncc2Cl)sc2c1CCCC2 -7.33%
Cc1ccc(NC(=O)Nc2cn(CC(C)C)c(=O)c3ccccc23)cc1N(C)C -24.9%
CCN(c1ccccc1C)S(=O)(=O)c1nnc(NC(=O)c2ccco2)s1 -19.2%
COc1ccccc1OCC(=O)N1CCC(c2nc3ccccc3o2)CC1 -6.86%
Cc1ccc(-n2ncc(C(=O)NC3CCCCC3)c2C2CCN(C(=O)OC(C)(C)C)CC2)cc1 6.88%
COc1ccc(CNc2nc3c(-c4cccc(F)c4)nnn3c3ccccc23)cc1 33.4%
COc1ccc(-c2c(C)nn3c(C(F)(F)F)cc(-c4ccccc4)nc23)cc1OC -1.29%
Cc1ccc(NC(=O)c2c(C)oc3c2C2=NCCN2C=N3)cc1F -24.1%
Cc1cccn2c(=O)cc(CSc3nnc(NC(=O)COc4ccccc4)s3)nc12 -7.94%
COC(=O)c1cc2sccc2n1CC(=O)Nc1ccc(OC)c(OC)c1 -21.3%
Cc1c(Cl)cccc1NC(c1ccc(F)cc1)c1nnc(-c2ccccc2)o1 (stereo unspecified) -18.8%
O=C(Cn1cccc1C(=O)c1ccccc1)NCc1ccccc1Cl 23.8%
O=C(Nc1cccnc1)c1cc(-c2ccc(Cl)cc2)on1 0.412%
O=C(c1ccc2c(c1)N(Cc1cccc(F)c1)C(=O)c1ccccc1S2)N1CCC2(CC1)OCCO2 -1.11%
